From PubChem BioAssay AID686979 (National Center for Advancing Translational Sciences (NCATS), 2013)
Screen size: about 420,000 compounds; about 50,000 (12%) were called active. The inconclusive results got no clear call from the source; some entries with a clear call stand among them for comparison. The call rests on the fitted dose curve; in most records, active means well fitted inhibition curve with a large enough effect; inconclusive means small, poorly fitted or top-dose-only effect; inactive means flat fitted curve, though single readings scatter. No potency is given beside an inconclusive call; the fits are too rough.

assay: qHTS for Inhibitors of human tyrosyl-DNA phosphodiesterase 1 (TDP1): qHTS in cells in presence of CPT; conditions: chicken DT40 Tdp1-/-;hTDP1 cells + 20 nM CPT, ATP luminescence, 48 h; activity change, negative = growth inhibition: at 46.2 µM (top of the series); further: nearly all actives have a fitted effect of over 55% in size
Procedure, shortened: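 Cell growth measured by CellTiter-Glo luminescence after a minimum 48 h, 37 C compound exposure with 20 nM CPT in Tdp1-knockout DT40 cells stably expressing hTDP1, seeded 400/well; qHTS titration format.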
On the % scale 0 is the no-effect control and ±100 the full control effect; potency means the concentration at half of the fitted maximal effect; tags describe the fitted curve by direction and shape.

SMILES | Potency | activity change, negative = growth inhibition
Cc1ccccc1Cc1c(C)nc2nc(SCC(=O)NC(C)c3ccccc3)nn2c1C (stereo not given) | active: 16.4 µM | –
O=C(NCCCN1CCN(c2ccccc2)CC1)c1cc2c(s1)-c1ccccc1OC2 | inconclusive [inhibitor, single point] | –
CC(=O)N1c2ccc(S(=O)(=O)N3CCC(C(=O)N4CCN(c5ccc(Cl)cc5)CC4)CC3)cc2CC1C (stereo not given) | active: 16.4 µM | –
COC(=O)c1ccc(NC(=O)CSc2nnc(-c3cccnc3)o2)cc1 | inactive | –
O=C1N=C(N2CCOCC2)S/C1=C\c1ccc(OS(=O)(=O)c2ccccc2)cc1 | inconclusive [inhibitor, single point] | –
Cc1cccc(/C=C/c2onc(C)c2S(=O)(=O)N2CCC(C(=O)NC(C)C)CC2)c1 | inconclusive [inhibitor, single point] | –
CCC(C)Sc1nc2ccccc2c(=O)[nH]1 (stereo not given) | inconclusive [inhibitor, single point] | –
COC(=O)c1ccc(OC(=O)c2ccncc2)cc1O | inactive | –
COC(=O)c1ccc(CSc2nnc(CNC(=O)c3ccccc3F)o2)o1 | inactive | –
COc1cccc(-c2cnc3c(NC(C)=O)cc(-c4cccc(NC(C)=O)c4)cn23)c1 | inconclusive [inhibitor, single point] | –
Cc1ccc(-n2cc(CN3CCN(Cc4nccn4C)CC3)c(-c3ccc(F)cc3)n2)cc1 | inconclusive [inhibitor, single point] | –
C[C@H](CO)N1C[C@H](C)[C@@H](CN(C)S(=O)(=O)c2ccccc2)Oc2c(NC(=O)C3CCCCC3)cccc2C1=O | inconclusive [inhibitor, single point] | –
Cc1ccccc1OCCCn1c(-c2ccc(Cl)cc2)nc2ccccc2c1=O | inactive | –
Cn1ncc([N+](=O)[O-])c1C(=O)Nc1ccc(Cl)cc1 | inactive | –
CCCCN(C)CCNC(=O)c1ccc2c(c1)NC(=O)C(N1CCCCC1)S2 (stereo not given) | inconclusive [inhibitor, single point] | –
O=C(NN=Cc1ccc(F)cc1)c1ccccc1NS(=O)(=O)c1cccs1 | inconclusive [inhibitor, single point] | –
O=C(CCSCc1cccc(F)c1)NCc1ccc(F)cc1 | inconclusive [inhibitor, single point] | –
CC(=O)C1=C(O)C(=O)N(CCCN2CCOCC2)C1c1ccccc1[N+](=O)[O-] (stereo not given) | inconclusive [inhibitor, single point] | –
Nc1c(Cl)ncnc1NCCc1ccc(O)cc1 | active: 13 µM | –
Cc1ccc(N2C(=O)C3C4C=CC(CC4)C3C2=O)cc1Br (stereo not given) | inactive | –
Cc1ccc(N2CCN(C(=O)c3ccccc3NC(=O)/C=C\C(=O)O)CC2)cc1 | inconclusive [inhibitor, partial curve] | –
COc1ccc(Nc2nc3cc(Cl)c(Cl)cc3n3cnnc23)cc1Cl | inconclusive [inhibitor, single point] | –
COc1ccc(-c2nc(-n3c(C)c(C(C)=O)c(C(C)=O)c3C)sc2C)cc1 | active: 20.6 µM | –
Cc1ccc2[nH]c3c(c2c1)CCNC3=O | inactive | –

SMILES | Potency | activity change, negative = growth inhibition
O=C(/C=C/c1ccccc1Cl)NCc1cccs1 | – | inconclusive: -30.8% [inhibitor]
COc1cc(C(C)=O)ccc1OCc1cn(CC(=O)c2ccc(O)cc2)nn1 | inconclusive [inhibitor, single point] | –
Clc1ccccc1-c1cccc2nccn12 | inconclusive [inhibitor, partial curve] | –
O=C(Nc1ccc(O)c2c(=O)cc(-c3ccccc3Cl)oc12)c1cccc(Cl)c1 | inconclusive [inhibitor, single point] | –
COc1ccc(CCN(C)Cc2ccc(C(=O)Nc3ccccc3)cc2)cc1OC | inconclusive [inhibitor, single point] | –
S=c1[nH]nc(COc2ccc(Cl)cc2)n1C1CCCCC1 | inconclusive [inhibitor, single point] | –
CC(C)(C)NC(=S)NNC(=O)c1cccc(Br)c1 | active: 5.8 µM | –
CCCCn1cc2c(c1-c1cccc(C)c1)c(=O)n(C)c(=O)n2C | inconclusive [inhibitor, single point] | –
O=C(NC1(C(F)(F)F)N=C(c2ccccc2)NC1=O)c1ccc(Cl)cc1Cl (stereo not given) | inconclusive [inhibitor, partial curve] | –
CCOC(=O)c1sc(NC(=O)c2ccc(S(=O)(=O)N3CCCCCC3)cc2)nc1-c1ccccc1 | inconclusive [inhibitor, single point] | –
CC(C)(C)c1ccc(C(=O)NCC(=O)OCC(=O)N2CCCC2)cc1 | inactive | –
COc1ccc2c(c1)sc(=N)n2C | active: 18.4 µM | –
OCC[C@H]1C[C@H](O)[C@@H](O)[C@]2(CCCCO2)O1 | inactive | –
Cc1ccc(C(C)NC(=O)c2cc3cc(Br)ccc3oc2=N)cc1 (stereo not given) | active: 23.1 µM | –
Cc1ccc(C(=O)CC(=O)c2cc(Cl)ccc2O)cc1 | active: 6.51 µM | –
Cc1ccc2occ(/C=N/NC(=O)c3ccccc3Br)c(=O)c2c1 | inconclusive [inhibitor, partial curve] | –
Cc1ccc(C)c(COC(=O)c2cc([N+](=O)[O-])ccc2N2CCOCC2)c1 | inconclusive [inhibitor, single point] | –
COc1cc2c(cc1OC)C(COc1ccc(C(C)C)cc1)N(C(=O)c1ccc(S(=O)(=O)N3CCCC3)cc1)CC2 (stereo not given) | inconclusive [inhibitor, partial curve, poor fit] | –
Cc1ccc(NC2CCCN(C(=O)CCC3(C)CC3)C2)cc1C (stereo not given) | inactive | –
COc1cc(OC)c(OC)cc1/C=N/NC(=O)CC1C(=O)NN=C1C (stereo not given) | inactive | –
CCC(C)n1c(SCc2c(F)cccc2Cl)nc2ccsc2c1=O (stereo not given) | active: 4.11 µM | –
COc1ccccc1NC(=O)COC(=O)C12CC3CC(CC(Cl)(C3)C1)C2 | inconclusive [inhibitor, partial curve] | –
Cn1nc(C(C)(C)C)cc1NC(=O)C1(C)CCN1C(=O)CCc1ccccc1 (stereo not given) | inconclusive [inhibitor, single point] | –
NC(=O)c1cccc2c1C(=O)N(C1CCCCC1)C2 | inconclusive [inhibitor, single point] | –

SMILES | Potency | activity change, negative = growth inhibition
Cc1ccc(C)c(CN2C(=O)c3ccccc3S(=O)c3ccc(C(=O)N4CCN(c5ccccc5F)CC4)cc32)c1 (stereo not given) | active: 5.8 µM | –
COc1ccc(OC)c(/C=N\NC(=O)c2ccc(-c3ccccc3)cc2)c1 | inconclusive [inhibitor, single point] | –
CCCN1C(=O)c2ccccc2NC1c1ccc(OC)c(COc2cccc(C)c2C)c1 (stereo not given) | inconclusive [inhibitor, single point] | –
COc1cc2c(cc1OC)C(c1cccs1)N(C(=O)c1ccc(S(=O)(=O)N(C)C)cc1)CC2 (stereo not given) | inconclusive [inhibitor, single point] | –
Cc1ccc2c(c1)N(C(=O)CCC(=O)NCc1cccs1)CCO2 | inconclusive [inhibitor, single point] | –
Cc1cc(N2CCCCC2C)nc(-c2ccccc2O)n1 (stereo not given) | active: 23.1 µM | –
C[C@@H]1CCCCO[C@H](CN(C)C(=O)NC2CCCCC2)[C@@H](C)CN([C@H](C)CO)C(=O)c2cc(NC(=O)c3ccccc3)ccc2O1 | inconclusive [inhibitor, single point] | –
COc1ccc(Br)c(C(=O)Nc2cc3c(cc2N2CCCCC2)n(C)c(=O)c(=O)n3C)c1 | active: 23.1 µM | –
CN(C)c1ccc(/C=N/NC(=O)C[n+]2ccccc2)cc1 | inactive | –
CCOc1ccc(CNC(=S)N/N=C/c2cccnc2)cc1 | inconclusive [inhibitor, full curve, poor fit] | –
Cc1ccc(S(=O)(=O)CCC(=O)OCn2nnc3ccccc3c2=O)cc1 | inconclusive [inhibitor, single point] | –
CCc1ccc(-c2nc3cc(NC(=O)c4cc5ccccc5cc4OC)ccc3o2)cc1 | inconclusive [inhibitor, single point] | –
CCCNC(=O)C1(C)CCCN(C(=O)C(c2ccccc2)c2ccccc2)C1 (stereo not given) | inconclusive [inhibitor, single point] | –
O=C(/C=C/c1ccc([N+](=O)[O-])cc1)N1CCN(Cc2ccccc2)CC1 | inconclusive [inhibitor, partial curve] | –
CCOC(=O)c1nc(Nc2cc(Cl)ccc2OC)c2ccccc2n1 | inconclusive [inhibitor, single point] | –
O=Nc1c(O)[nH]c2ccc(F)cc12 | inactive | –
COc1cc2c(cc1OC)C(COc1ccc(F)cc1)N(C(=O)c1ccc(S(=O)(=O)N3CCCC3)cc1)CC2 (stereo not given) | inconclusive [inhibitor, single point] | –
CN(C)c1ncc2ncc(=O)n(C[C@H]3CCCO3)c2n1 | inconclusive [inhibitor, single point] | –
CCN(CC)c1ccc(C=C2SC(=S)NC2=O)cc1 | active: 13 µM | –
COc1cc(NC(=O)Cn2ncc(Cl)c(Cl)c2=O)c(C)cc1[N+](=O)[O-] | active: 2.91 µM | –
O=C(CSc1nc2nccnc2c(=O)n1Cc1cccs1)Nc1ccccc1F | – | inconclusive: -36.2% [inhibitor]
O=C(NCc1ccc2c(c1)OCO2)c1nc(S(=O)(=O)Cc2ccccc2F)ncc1Cl | active: 4.11 µM | –
